Source: PubChem BioAssay AID504832 (National Center for Advancing Translational Sciences (NCATS), 2011)
The campaign covered roughly 310,000 compounds. About 18,000 (5.8%) were called active. The inconclusive results got no clear call from the source; some entries with a clear call stand among them for comparison. Calls follow the shape of the dose curve; as a rule, active = well fitted inhibition curve with a large enough effect; inconclusive = small, poorly fitted or top-dose-only effect, or another doubt; inactive = no such curve, though single readings can be large or run the other way. Potencies of inconclusive entries are left out as doubtful fits.

Test: Primary qHTS for delayed death inhibitors of the malarial parasite plastid, 48 hour incubation
Details: P. falciparum luciferase growth in erythrocytes; series mostly up to 28.7 µM
How it was run: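 Erythrocytes infected with P. falciparum carrying an integrated firefly luciferase reporter (2% hematocrit, 0.1% parasitemia final) were exposed to compounds in RPMI 1640 with 0.5% Albumax at 37 C, 5% CO2. Growth inhibition was scored as reduced luminescence.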
Potency is read from the fitted curve at half-maximal effect; tags tell the direction and shape of the fitted curve.

Row | SMILES | Potency
1 | O=C(O)Cc1ccc2oc(-c3cccnc3)nc2c1 | inactive
2 | CC(C)(C)SCCNC(=O)/C=C/c1ccccc1 | inconclusive [inhibitor, partial curve, poor fit]
3 | CCN(CCCNC(=O)COc1cc(=O)n(CC)c2ccccc12)Cc1ccccc1 | inconclusive [inhibitor, single point]
4 | C/C=C(\C)C(=O)Nc1cccc(C2=NOC3(C2)C[C@H](C(N)=O)N(C(=O)CC#N)C3)c1 (stereo not given in full) | inactive
5 | COc1ccc(-c2nnn(CC(=O)N(CCN3CCOCC3)C(C(=O)NC3CCCCC3)c3ccco3)n2)cc1 (stereo not given) | inconclusive [inhibitor, partial curve, poor fit]
6 | Cc1cc(C)c(COc2ccc(/C=N/n3c(C)n[nH]c3=S)cc2)c(C)c1 | active: 11.7 µM
7 | COc1ccc(F)cc1CN1CCN(c2cc(C)nc3c4c(C)cc(C)nc4nn23)CC1 | active: 14.7 µM
8 | COc1ccc(OC)c(NC(=O)NC2CCCCCCC2)c1 | inactive
9 | O=C(c1cnn(-c2ccccc2)c1)c1cc(Br)ccc1O | inconclusive [inhibitor, single point]
10 | Clc1ccc2nc(-c3ccc(Cl)nc3)[nH]c2c1 | inconclusive [inhibitor, single point]
11 | Cc1ccnc(NS(=O)(=O)c2ccc(NC(=O)C3CCCCC3C(=O)O)cc2)n1 (stereo not given) | inactive
12 | CCN(Cc1ccccc1)C(=O)c1oc2ccc(S(=O)(=O)N3CCOCC3)cc2c1C | inconclusive [inhibitor, partial curve]
13 | COc1ccc(CCn2nnnc2C(CC(C)C)N2CCC(C(N)=O)CC2)cc1OC (stereo not given) | inactive
14 | COc1ccccc1OCCNC(=O)c1ccc(C)o1 | inactive
15 | COCC(=O)N1CCC(Oc2ccc(C(=O)N3C[C@@H](C)O[C@@H](C)C3)cc2)CC1 | inactive
16 | COc1cccc(NC(=O)NCc2ccc(F)cc2)c1 | inactive
17 | CCCn1c(Cc2ccccc2)nnc1SC(C)C(=O)NC1CC1 (stereo not given) | inconclusive [inhibitor, single point]
18 | Cc1ccc(CNC(=O)CN2C(=O)CSc3ccc(S(=O)(=O)N4CCCCC4)cc32)cc1 | inconclusive [inhibitor, partial curve, poor fit]
19 | Cc1cc(C)n(-c2cc(N3CCN(S(=O)(=O)c4ccc(C)c(C)c4)CC3)ccc2[N+](=O)[O-])n1 | inconclusive [inhibitor, full curve, poor fit]
20 | Cc1sc2ncnc(N3CCC(C(=O)NNC(=O)COc4cccc(C(F)(F)F)c4)CC3)c2c1C | inconclusive [inhibitor, single point]
21 | O=c1[nH]c(C2CCN(S(=O)(=O)c3ccccc3)CC2)nc2c1nnn2Cc1cccc(Cl)c1 | inconclusive [inhibitor, partial curve, poor fit]
22 | Cc1ccc(C)c(S(=O)(=O)Nc2ccc(O)c3ccccc23)c1 | inconclusive [inhibitor, partial curve, poor fit]
23 | O=C(NCc1ccccc1)c1ccc(NC(=O)C2CCCO2)cc1 (stereo not given) | inactive

Row | SMILES | Potency
24 | CC1CN(C(=O)C(C)Sc2nc3ccccc3s2)CC(C)O1 (stereo not given) | inconclusive [inhibitor, single point]
25 | CCCNc1c(F)c(F)c2c(C)c3ccccc3nc2c1F | inconclusive [inhibitor, partial curve, poor fit]
26 | CCOc1ccc(C(=O)N2CCN(S(=O)(=O)c3cccs3)CC2)c(OCC)c1 | inconclusive [inhibitor, partial curve, poor fit]
27 | O=C(CN(c1ccccc1)S(=O)(=O)c1ccccc1)NCCSc1nc2ccccc2s1 | inconclusive [inhibitor, partial curve]
28 | O=c1cc(-c2ccc(C3CCCCC3)cc2)[nH][nH]1 | inactive
29 | CCC(C(=O)NC1CC(C)(C)NC(C)(C)C1)c1ccccc1 (stereo not given) | inactive
30 | COc1ccc(CCNC(=O)C(=O)NCc2cccs2)cc1OC | inconclusive [inhibitor, full curve, poor fit]
31 | COCCN(CCOC)S(=O)(=O)c1ccc(C(=O)Nc2ccc(S(=O)(=O)Nc3nccc(C)n3)cc2)cc1 | inconclusive [inhibitor, single point]
32 | COc1ccc(S(=O)(=O)N(CC(=O)NCc2ccncc2)c2cc(C)cc(C)c2)cc1OC | inconclusive [inhibitor, partial curve]
33 | C=CCSc1nc2c(cnn2-c2ccccc2)c(=O)n1N | inactive
34 | COc1cccc(NC(=O)C(=O)NCCC2CCCCN2S(=O)(=O)c2ccccc2)c1 (stereo not given) | inactive
35 | COc1ccc(C(=O)Nc2oc(-c3ccccc3)c(-c3ccccc3)c2C#N)cc1 | inactive
36 | CSc1cccc(NC(=S)N(CCCN2CCC(C)CC2)Cc2cccs2)c1 | inconclusive [inhibitor, partial curve, poor fit]
37 | CC1CCCC(C)N1CCCNC(=O)c1ccc2c(c1)NC(=O)c1ccccc1S2 (stereo not given) | active: 4.15 µM
38 | O=C(c1ccccc1Sc1c(Cl)cccc1[N+](=O)[O-])N1CCOCC1 | inactive
39 | CC1CN(C(=O)c2cc3cc(Br)ccc3[nH]2)CC(C)O1 (stereo not given) | active: 11.7 µM
40 | COc1ccccc1CNC(=O)CCN1C(=O)c2ccccc2C1=O | inactive
41 | COc1ccccc1C(=O)COC(=O)C(CCSC)NC(=O)COc1ccccc1 (stereo not given) | inconclusive [inhibitor, partial curve, poor fit]
42 | CC(=O)N1CCN(Cc2nc3cc(NC(=O)c4ccccc4Cl)ccc3n2C)CC1 | inconclusive [inhibitor, single point]
43 | O=C1CSC(c2ccccn2)N1c1ccc(Cl)c(Cl)c1 (stereo not given) | inconclusive [inhibitor, full curve, poor fit]
44 | O=C(C1CCN(c2nc3ccc(Br)cc3s2)CC1)N1CCC2(CC1)OCCO2 | inactive
45 | COc1ccc(N2CCN(CCCn3c(=S)[nH]c4ccccc4c3=O)CC2)cc1 | inconclusive [inhibitor, single point]
